# The whole screen tested about 110,000 compounds, of which about 230 (0.21%) showed an effect of 50% or more. This is one part of the list.
# Target: DPAP1 (Plasmodium falciparum, UniProt Q8IIJ9)
# Assay: primary screen, percent inhibition; read by cleavage of a fluorogenic dipeptide substrate; higher = more effect of the substance
# Design: species or system P. falciparum D10 trophozoite lysates; single well
# 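Also: 30 min substrate incubation versus DMSO and 10 µM JCP410 controls.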
# Chain of DPAP1 (Q8IIJ9 whole entry, looked up): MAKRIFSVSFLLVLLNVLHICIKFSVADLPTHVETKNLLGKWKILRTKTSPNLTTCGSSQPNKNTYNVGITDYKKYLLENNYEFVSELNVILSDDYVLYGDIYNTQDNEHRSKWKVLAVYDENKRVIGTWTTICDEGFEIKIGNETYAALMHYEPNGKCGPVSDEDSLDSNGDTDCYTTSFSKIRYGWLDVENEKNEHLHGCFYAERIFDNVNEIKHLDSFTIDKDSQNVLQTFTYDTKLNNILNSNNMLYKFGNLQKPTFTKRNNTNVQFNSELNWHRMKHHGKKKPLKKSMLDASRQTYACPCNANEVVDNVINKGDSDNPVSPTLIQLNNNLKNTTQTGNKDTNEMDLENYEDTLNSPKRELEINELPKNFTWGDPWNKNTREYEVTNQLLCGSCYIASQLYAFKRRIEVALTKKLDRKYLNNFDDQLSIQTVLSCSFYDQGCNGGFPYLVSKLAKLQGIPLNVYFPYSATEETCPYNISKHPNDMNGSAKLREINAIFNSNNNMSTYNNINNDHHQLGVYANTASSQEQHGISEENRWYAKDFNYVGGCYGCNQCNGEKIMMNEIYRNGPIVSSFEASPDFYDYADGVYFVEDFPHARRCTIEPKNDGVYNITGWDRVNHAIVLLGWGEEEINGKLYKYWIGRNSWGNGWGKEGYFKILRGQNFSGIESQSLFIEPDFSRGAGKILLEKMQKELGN
row,SMILES,% Inhibition @ 10 uM [%]
1,O=C(N/C(=C\c1cccnc1)C(=O)N1CCCCC1)c1cccc(Br)c1,-2.07
2,Cc1cccc2sc(NC(=O)/C=C/C(=O)O)nc12,-0.053
3,Cc1ccc(C(=O)C2=C(O)C(=O)N(CC3CCCO3)C2c2cccc(Oc3ccccc3)c2)o1 (centres unmarked),-2.73
4,CCN(CC)C(=O)C1CCCN(Cc2ccc(Cl)c(Cl)c2)C1 (centres unmarked),1.48
5,N#CC1=C(N)Oc2ccc3ccccc3c2C1c1ccccc1 (centres unmarked),-0.294
6,NC(=O)C1(N2CCCCC2)CCN(C(=O)NCc2ccccc2)CC1,9.58
7,Cc1ccc(-c2nnc3sc(COc4ccccc4C)nn23)cc1,-4.02
8,Cc1cc(NS(=O)(=O)c2ccc(NC(=O)COc3ccccc3Cl)cc2)no1,-3.78
9,Cc1ccc2nc(NCc3ccccc3Cl)c3nncn3c2c1,-2.42
10,O=C(NC1CCN(Cc2ccccc2)CC1)C1=Cc2sc3c(c2CS1)CCCC3,22.2
11,CCOC(=O)c1c(-c2ccsc2)csc1N,1.72
12,CC(=O)C1=C(C)NC(=O)NC1c1ccc(C)cc1 (centres unmarked),1.54
13,Cc1nc2c(C(=O)NCc3ccccc3Cl)cnn2c(O)c1Cl,1.27
14,CCOC(=O)c1c(C)c(C(=O)NC(C)COC)c(C)n1C (centres unmarked),1.72
15,COc1ccc(CC(=O)Nc2ccc3ccccc3c2)cc1,-2.78
16,Cc1ccc2cc3cc(C(=O)NCCCN4CCCC4=O)oc3nc2c1,-1.54
17,C=CCOCC(O)C[S+](O)Cc1ccccc1 (centres unmarked),0.634
18,CCC1CCc2nc3sc(C(=O)Nc4ccc(C(C)=O)cc4)c(N)c3cc2C1 (centres unmarked),-3.03
19,COc1ccc(-c2cc(N)n(S(=O)(=O)c3ccc(C)cc3)n2)c(OC)c1,-0.495
20,COc1cc(C(=O)Nc2nn3c(-c4ccco4)nnc3s2)cc(OC)c1OC,-1.56
21,Cc1cc(C)nc(SCCC(=O)Nc2ccc(F)cc2)n1,3.04
22,COc1c(F)c(F)c2c(C)c3ccccc3nc2c1F,4.08
23,O=C(Nc1nc(-c2ccc(S(=O)(=O)N3CCCC3)cc2)cs1)c1ccc(Cl)cc1,4.31
24,COc1cc(OC)c(-n2cccc2/C=C2\C(=N)N3N=C(C)SC3=NC2=O)cc1Cl,-3.35
25,O=C(NCc1nc2ccccc2n1CCOc1ccccc1)c1ccccc1,-1.15

row,SMILES,% Inhibition @ 10 uM [%]
1,CN(C)c1ccc(CN2CCCC(C(N)=O)C2)cc1 (centres unmarked),0.217
2,C/C=C(\C)CN1CCN(CCOCCO)CC1,-1.64
3,CCCN(CCO)Cc1ccccc1C(F)(F)F,-0.262
4,CC1=C(C(=O)Nc2cccnc2)C(c2ccccc2Cl)n2nc(-c3cccnc3)nc2N1 (centres unmarked),3.17
5,CCOC(=O)c1c(NC(=O)CNCc2ccccc2)sc2c1CCN(C(=O)OCC)C2,6.51
6,CC(c1ccccc1)N1C(=O)NC(NC(=O)C(C)(C)C)(C(F)(F)F)C1=O (centres unmarked),0.907
7,Cc1sc2ncn(CC(=O)NCCCC(=O)NCCC3=CCCCC3)c(=O)c2c1C,4.33
8,COc1ccc(Cl)cc1NC(=O)c1cccc(Cl)c1,11.7
9,COc1cc(/C=C2/NC(=O)N(Cc3ccc(F)cc3)C2=O)cc(Br)c1OCC(=O)O,3.21
10,O=C1CC(N2CCN(Cc3ccc4c(c3)OCO4)CC2)C(=O)N1Cc1ccc2c(c1)OCO2 (centres unmarked),-4.89
11,C=CC1C(N2CCOCC2)C(C)(C)S1(=O)=O (centres unmarked),5.53
12,CC(C)(C)OC(=O)N1CCC(c2c(C(=O)Nc3nccs3)cnn2-c2ccc(F)cc2)CC1,6.66
13,CC1CCCCN1c1nnc(NC(=O)NC2CCCC2)s1 (centres unmarked),-2.85
14,O=P(O)(C1CCCCC1)C1CCCCC1,4.44
15,Cc1cc(-c2ccc(C)c(S(=O)(=O)N3CCC(c4ccccc4)C3)c2)on1 (centres unmarked),-5.86
16,O=C(Cc1nc(N2CCOCC2)nc(N2CCOCC2)n1)c1ccccc1,2.17
17,CN(CCCNC(=O)c1csc2c1CCCC2)C1CCCCC1,-5.05
18,O=C(COc1ccc(Cl)cc1)N1CCN(C/C=C/c2ccccc2)CC1,2.03
19,CC(=O)NC1(NC(C)=O)CCN(C)CC1,-1.86
20,C=CCN1C(=O)C2(NC(CC)C3C(=O)N(c4ccc(Br)cc4)C(=O)C32)c2ccccc21 (centres unmarked),8.13
21,Cc1ccc(C)c(NC(=O)c2ccc(Br)o2)c1,2.06
22,CCOc1ccc(-c2[nH]nc3c2C(c2cccs2)C(C#N)=C(N)O3)c(OCC)c1 (centres unmarked),-4.41
23,CCOCCCNC(=O)C(c1ccc(Cl)cc1)N1CCC2(CC1)OCCO2 (centres unmarked),-1.2
24,O=C1c2ccccc2C(=O)N1CCc1n[nH]c(CCN2C(=O)c3ccccc3C2=O)n1,-5.35
25,COc1ccc(C2(C(=O)Nc3ccc(C(=O)NCCc4ccccc4)cc3)CCOCC2)cc1,0.931

# — paper PMC6919601, “Identification of Plasmodium dipeptidyl aminopeptidase allosteric inhibitors by high throughput screening” (PLoS ONE, 2019)
